{"source": "patent US20240173425A1", "about": "“HUMAN CD33 ANTIBODIES AND GLUCOCORTICOID CONJUGATES” (Eli Lilly and Company, priority 2022, published 2024)", "molecules": {"B1": {"name": "Ab2: anti-human CD33 antibody, HC SEQ ID NO: 9 and LC SEQ ID NO: 10, IgG1AAA backbone (antibody)", "heavy": "[about 100 residues not printed]TYSNYDYWGQGTLVTVSSASTKGPCVFPLAPSSKSTSGGTAALGCLVKDYFPEPVTVSWNSGALTSGVHTFPAVLQSSGLYSLSSVVTVPSSSLGTQTYICNVNHKPSNTKVDKRVEPKSCDKTHTCPPCPAPEAAGGPSVFLFPPKPKDTLMISRTPEVTCVVVDVSHEDPEVKFNWYVDGVEVHNAKTKPREEQYNSTYRVVSVLTVLHQDWLNGKEYKCKVSNKALAAPIEKTISKAKGQPREPQVYTLPPSREEMTKNQVSLTCLVKGFYPSDICVEWESNGQPENNYKTTPPVLDSDGSFFLYSKLTVDKSRWQQGNVFSCSVMHEALHNHYTQKSLSLSPGK", "light": "DIQMTQSPSSLSASVGDRVTITCQASQPTFNYLNWYQQKPGKAPKLLIYDASNLQTGVPSRFSGSGSGTDFTFTISSLQPEDIATYYCQQYEDLPTFGPGTKVDIKRTVAAPSVFIFPPSDEQLKSGTASVVCLLNNFYPREAKVQWKVDNALQSGNSQESVTEQDSKDSTYSLSSTLTLSKADYEKHKVYACEVTHQGLSSPVTKSFNRGEC"}}, "key": {"[1]": {"tested_on": "primary human monocyte cells", "assay": "Antibody internalization (pHrodo Red, flow cytometry)", "type": "cell-based", "conditions": "pHrodo-labeled antibodies 10 μg/mL, 2 hours at 37° C.", "procedure": "Exemplified anti-human CD33 antibodies were labeled with pHrodo™ Red, amine-reactive dye (Thermo Fisher, P36014). The pH-sensitive dye was a non-fluorescent when outside the cells but fluoresces brightly in acidic low-pH lysosomes. This property allows visualization and qualification of the internalization of an antibody by flow cytometry. Human PBMCs (500 K/well) were incubated on ice in FACS buffer for 30 min, to quiesce baseline internalization. Cells were stained with pHrodo-labeled antibodies (10 μg/mL) in FACS buffer for 1 hour on ice then transferred to 37° C. for 2 hours. Cells were then stained with the remaining panel of surface detection marker: CD45 mAb (clone HI30); CD11b (clone ICRF44); CD14 (clone M5E2)."}, "[2]": {"assay": "Thermal stability by Differential Scanning Calorimetry", "type": "physicochemical", "conditions": "DSC, PBS, pH 7.2", "procedure": "(§1) Aggregation from cell culture: The exemplified anti-human CD33 antibodies were transiently expressed in CHO cells. […] The viscosity for each was measured using VROC® initium (RheoSense) at 15° C. using the average of 9 replicate measurements. […] Concentrated samples were incubated for a period of 4 weeks at 5° C. and 35° C., respectively. Following incubation, samples were analyzed for the percentage of high molecular weight (% HMW) species with size exclusion chromatography (SEC)."}, "[3]": {"assay": "Aggregation from cell culture and titer after Protein A purification", "type": "physicochemical", "conditions": "transient expression in CHO cells", "procedure": "as §1"}, "[4]": {"target": "T1, human CD33 ECD 18-232-His (Homo sapiens, UniProt P20138)", "T1 construct": "CD33 ECD 18-232-His proteins", "T1 sequence (P20138 18-232)": "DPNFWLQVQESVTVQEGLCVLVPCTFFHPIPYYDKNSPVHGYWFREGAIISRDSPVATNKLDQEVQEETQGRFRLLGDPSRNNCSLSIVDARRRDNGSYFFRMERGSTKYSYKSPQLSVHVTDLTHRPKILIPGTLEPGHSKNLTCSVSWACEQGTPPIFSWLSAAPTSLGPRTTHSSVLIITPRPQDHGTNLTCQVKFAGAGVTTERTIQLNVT", "assay": "Binding affinity and kinetics by surface plasmon resonance (Biacore 8K)", "conditions": "37° C., 1:1 binding model", "procedure": "(§2) The affinity and binding kinetics of the exemplified anti-human CD33 antibodies to human and cynomolgus monkey CD33 ECD 18-232-His proteins was determined by surface plasmon resonance using Biacore 8K (GE Healthcare). Briefly, per the Instrument Handbook the antibody was captured on a Biacore Protein A chip followed by flowing CD33 ECD from 200 nM down to 0.782 nM in 2-fold serial dilution in PBS-P20-BSA (0.005% surfactant P20, 0.1 mg/mL BSA). All measurements were carried out at 37° C. Multi-cycle kinetics setting that ran each analyte concentration in a separate cycle regenerating the surface after each sample injection was used. The regeneration was optimized to maintain consistent surface properties from cycle to cycle. Each cycle started with a 3 minute injection of 0.1 μg/mL of the antibody at 10 μl/min flow rate, followed by 3 min injection of antigen at 50 μl/min flow rate and a 15 min dissociation phase in PBS-P20-BSA. The chip surface was then regenerated with 30 seconds injection of pH 1.5, 10 mM glycine buffer at 50 μl/min flow rate three times. The data was fit to a 1:1 binding model to derive ka and kd, and to calculate KD."}, "[5]": {"tested_on": "cynomolgus monkey CD33 ECD 18-232-His", "assay": "Binding affinity and kinetics by surface plasmon resonance (Biacore 8K)", "conditions": "cynomolgus monkey CD33 ECD, 37° C., 1:1 binding model", "procedure": "as §2"}, "CD33 on human monocytes": {"target": "T2, CD33 on human monocytes (Homo sapiens, UniProt P20138)", "T2 construct": "endogenous in cells; host or cells: primary human PBMCs / monocytes from donor blood", "T2 sequence (P20138 18-364)": "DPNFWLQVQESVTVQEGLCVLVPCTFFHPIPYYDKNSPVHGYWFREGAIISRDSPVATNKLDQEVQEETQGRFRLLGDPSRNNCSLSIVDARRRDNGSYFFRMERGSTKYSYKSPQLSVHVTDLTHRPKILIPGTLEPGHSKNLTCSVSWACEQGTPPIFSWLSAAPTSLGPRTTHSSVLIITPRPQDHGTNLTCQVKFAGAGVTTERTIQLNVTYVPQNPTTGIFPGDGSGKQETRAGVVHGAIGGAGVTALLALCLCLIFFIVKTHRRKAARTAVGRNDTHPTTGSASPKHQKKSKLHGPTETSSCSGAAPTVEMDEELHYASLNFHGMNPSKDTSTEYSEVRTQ", "assay": "Cell surface binding potency, FACS assay", "type": "cell-based", "conditions": "human PBMCs, 4° C. for 30 mins", "procedure": "Human PBMCs were isolated from human blood samples by standard Ficoll-Paque™ plus (GE […]) density gradient centrifugation methods. Freshly isolated cells PBMCs were resuspended at 2×10^6 cells/mL and allowed to rest for 15 minutes at room temperature, then plated at 100 μL/well into a round bottom 96-well plate (COSTAR®) and washed with FACS buffer (PBS containing 2% fetal bovine serum from Corning®). Exemplified anti-human CD33 antibodies and the respective control IgG antibodies conjugated to Alexa Fluor® 647 according to manufacturer's protocol (Thermo Fisher Scientific) were added to the wells and diluted 4-fold in duplicate. Equivalent volume of 2× antibody cocktail containing: PE-Cy5 anti-human CD14 Antibody (clone M5E2), Per-CP anti-human CD45 Antibody (clone H130), FITC anti-human CD11b (clone ICRF44), and Alexa Fluor-647 anti-human CD66b (G10F5) was then added to the wells. Cells were incubated at 4° C. for 30 mins, washed twice with FACS buffer and resuspended in a final volume of 100 μl FACS buffer. Viability dye, Live/Dead Yellow (Thermo Fisher Scientific, L34968), was added and the samples were analyzed via a flow cytometer (LSRFortessa™ X-20; BD BIOSCIENCES). Data analysis was performed using FlowJo software and statistical analysis was performed using GraphPad Prism 9. Data represents the mean fluorescence intensity (MFI) of CD33 expressing cells from monocytes or neutrophils."}, "CD33 in human PBMCs": {"target": "T3, CD33 in human PBMCs (Homo sapiens, UniProt P20138)", "T3 construct": "endogenous in cells; host or cells: primary human PBMCs / monocytes from donor blood", "T3 sequence (P20138 18-364)": "as above", "assay": "CD33 receptor degradation, protein immunoblot assay", "type": "cell-based", "conditions": "human PBMCs treated overnight at 37° C., compared to isotype control", "procedure": "Human PBMCs were isolated from human blood samples by standard Ficoll-Paque™ plus (GE […]) density gradient centrifugation methods. Freshly isolated PBMCs were seeded in 24-well cell culture plate at 1×10^7 cells/5 mL/well in culture media. […] This step allowed for determining degradation of internalized CD33 receptor. Cells were collected the following day and lysed with RIPA lysis buffer with protease and phosphatase inhibitors. Cell lysate protein was quantified by bicinchoninic acid (BCA) assay, and normalized for loading for the protein immunoblot assay. A non-competing anti-CD33 antibody (AbCam clone EPR4423) was used to detect CD33 levels."}, "[6]": {"tested_on": "human plasmacytoid dendritic cells (pDCs)", "assay": "Plasmacytoid dendritic cell differentiation assay", "type": "cell-based", "conditions": "human PBMCs, IL-3 supplemented media, CpG stimulation", "procedure": "The differentiation of pDC was measured by flow cytometry. The functional effects of the pDC were measured by type I IFN (IFNα) production."}, "Viscosity (VROC initium)": {"assay": "Viscosity (VROC initium)", "type": "physicochemical", "conditions": "about 125 mg/mL, 5 mM histidine pH 6, 15° C.", "procedure": "as §1"}, "[7]": {"assay": "Aggregation upon temperature stress (SEC)", "type": "physicochemical", "conditions": "about 100 mg/mL, 5 mM histidine pH 6.0, SEC", "procedure": "as §1"}, "human PBMCs [8]": {"tested_on": "human PBMCs", "assay": "Immune cell depletion, total viable cell count", "type": "cell-based", "procedure": "(§3) PBMCs were used to mimic in vivo conditions. […] The cells were then stimulated with LPS (Sigma cat. L2880) at 100 pg/mL in a 37° C. incubator for 24 hours. Culture supernatants were collected to measure the indicated cytokines (Proinflammatory Panel II (human) 4-Plex kits, MSD, K15053D-2)."}, "human PBMCs [9]": {"tested_on": "human PBMCs", "assay": "Proinflammatory cytokine modulation in LPS-stimulated PBMCs", "type": "cell-based", "conditions": "LPS 100 pg/mL, 24 hours", "procedure": "as §3"}}, "data": [{"molecule": "B1", "values": [{"measurement": "% Internalization", "setting": "[1]", "result": "86.545 ± 4.589", "unit": "%"}, {"measurement": "Tm1", "setting": "[2]", "result": 71.8, "unit": "°C"}, {"measurement": "Tm2", "setting": "[2]", "result": 77.5, "unit": "°C"}, {"measurement": "Tonset", "setting": "[2]", "result": 64.4, "unit": "°C"}, {"measurement": "% HMW species after Protein A chromatography", "setting": "[3]", "result": 1.10, "unit": "%"}, {"measurement": "sCHO titer", "setting": "[3]", "result": 4.7, "unit": "g/L"}, {"measurement": "ka", "setting": "[4]", "result": 454000, "unit": "M⁻¹ s⁻¹"}, {"measurement": "kd", "setting": "[4]", "result": 0.000516, "unit": "s⁻¹"}, {"measurement": "ka", "setting": "[5]", "result": 653000, "unit": "M⁻¹ s⁻¹"}, {"measurement": "kd", "setting": "[5]", "result": 0.00279, "unit": "s⁻¹"}, {"measurement": "binding to cell surface CD33 on human monocytes", "setting": "CD33 on human monocytes", "result": "bound human CD33 expressed on the monocyte cell surface with desirable binding potency"}, {"measurement": "CD33 degradation upon binding and internalization", "setting": "CD33 in human PBMCs", "result": "did not degrade the CD33 upon binding and internalization"}, {"measurement": "% Inhibition of human IFNα secretion", "setting": "[6]", "result": "1.25 ± 0.19", "unit": "%"}, {"measurement": "% Inhibition of pDC cell differentiation", "setting": "[6]; flow cytometry", "result": "0.97 ± 0.39", "unit": "%"}, {"measurement": "Viscosity", "setting": "Viscosity (VROC initium)", "result": 6.5, "unit": "cP"}, {"measurement": "% HMW after 4-week incubation at 5° C.", "setting": "[7]", "result": "<0.1", "unit": "%"}, {"measurement": "% HMW after 4-week incubation at 35° C.", "setting": "[7]", "result": 0.86, "unit": "%"}, {"measurement": "Total Viable Cell Count", "setting": "human PBMCs [8]; LPS Stimulation", "result": "1.64 ± 0.12 ×10^6 cells/mL"}, {"measurement": "Total Viable Cell Count", "setting": "human PBMCs [8]; No LPS", "result": "1.43 ± 0.33 ×10^6 cells/mL"}, {"measurement": "% Inhibition of human IL-6 secretion at 200 nM", "setting": "human PBMCs [9]", "result": "12.045 ± 1.887", "unit": "%"}, {"measurement": "% Inhibition of human TNFa secretion at 200 nM", "setting": "human PBMCs [9]", "result": "5.978 ± 0.548", "unit": "%"}]}]}
